Test results as given in PubChem BioAssay (NCI).
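Test compounds were applied to cells in 96-well plates for 48 hours at 5 doses. At the GI50, growth is halved. TGI is the concentration that stops growth completely.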

test system: NCI-H322M lung; test: DTP human tumour cell line panel, 48 h

Compared with `C/C(=N\Nc1nc2ccccc2s1)c1cnccn1`, `CN(C)C(=S)N/N=C(\C(=N/NC(=S)N(C)C)c1ccccn1)c1ccccn1` is lower in TGI: > 100 µM for the first, 19.8 µM for the second.

Compared with `Nc1ccc(-c2nc3ccccc3o2)cc1S`, `CSc1ccc(-c2cc(-c3nc4ccccc4[nH]3)nc(N)c2C#N)cc1` is higher in TGI: 47.2 µM for the first, > 100 µM for the second.

Going from `COC(=O)C1=C(c2ccc3c(c2)OCO3)OC(c2ccc3c(c2)OCO3)C1` (centres undefined) to `CSc1nc2c(c(=O)[nH]1)N=C(c1ccc(Cl)cc1)CC(c1ccccc1)N2` (centres undefined), the TGI falls from > 100 µM to 34.3 µM.

`Cc1cc(=O)oc2c(OS(C)(=O)=O)c(OS(C)(=O)=O)ccc12` and `CCOC(=O)c1c[nH]cc1-c1cn(S(=O)(=O)c2ccccc2)cc1C` cannot be ordered by TGI: > 100 µM for the first, > 100 µM for the second.

`CCOC(=O)N[C@@H]1C2CC(=O)C(O2)[C@@H]1OC` (some centres undefined) and `C=C(C)[C@H]1C[C@@H]2O[C@@](O)(/C(C)=C\C(=O)/C=C(/C)C[C@H]3OC(=O)[C@@]24O[C@H]34)[C@@H]1O` cannot be ordered by TGI: > 100 µM for the first, > 100 µM for the second.

`O=C(NC1CCCCC1)NS(=O)(=O)c1ccc(-n2nc3c(c2-c2ccc(Cl)cc2)Cc2ccccc2-3)cc1` and `Clc1ccc(C2=C(c3ccccc3)C(c3ccc(Cl)cc3)N3C(=N[C@H]4CCCC[C@@H]43)N2)cc1` (some centres undefined) are within 1.5-fold of each other in TGI: 33.2 µM for the first, 24.1 µM for the second.

`CO/N=C(\C(=O)Nc1cncs1)c1csc(N)n1` and `CCOC(=O)c1nnsc1NN=C(C)C` cannot be ordered by TGI: > 10 µM for the first, > 100 µM for the second.

Compared with `CN(C)[C@H]1CC[C@H]2[C@@H]3CCC4C[C@@H](NC(=O)NC(Cc5ccccc5)c5nccs5)CC[C@]4(C)[C@H]3CC[C@]12C` (some centres undefined), `C[C@]12CC[C@H]3[C@@H](CCC4=CC(=O)CC[C@@]43C)[C@@H]1CC[C@@H]2C(=O)Nc1ccc([N+](=O)[O-])c(C(F)(F)F)c1` is 12-fold higher in TGI: 3.24 µM for the first, 38.2 µM for the second.

`OCC1OC2OC3C(CO)OC(OC4C(CO)OC(OC5C(CO)OC(OC6C(CO)OC(OC7C(CO)OC(OC1C(O)C2O)C(O)C7O)C(O)C6O)C(O)C5O)C(O)C4O)C(O)C3O` (centres undefined) (tested in a mixture with another compound) and `CC(=O)OC[C@@]1(C)[C@@H]2[C@@H]3[C@@]4(CO[C@]3(C)C(=O)[C@@]3(O)C[C@H](C)[C@H](OC(C)=O)[C@@H]3[C@H]4OC(C)=O)[C@H](OC(=O)c3ccccc3)C[C@@H]21` cannot be ordered by TGI: > 100 µM for the first, > 100 µM for the second.

`Nc1cccc2c1C1=NNC(=O)CC1C2` (centres undefined) and `CCOC(=O)c1[nH]cc(C)c1-c1c[nH]c2ccccc12` cannot be ordered by TGI: > 100 µM for the first, > 100 µM for the second.

`CCOC(=O)C(C(=O)OCC)=C1N[C@H](C(=O)OCC)CS1` and `COC(=O)/C(=N\NC(=S)NN)C(C(=O)OC)C(=O)C(=O)Nc1cccc(C(F)(F)F)c1` (centres undefined) cannot be ordered by TGI: > 100 µM for the first, > 100 µM for the second.

First: COc1ccc(CCN2CCC(Nc3nc4ccccc4n3Cc3ccc(F)cc3)CC2)cc1
Second: O=C(Cc1ccccc1)NC(c1ccc(Cl)cc1)c1c(O)ccc2ccccc12 (centres undefined)
The TGI of the first is 3.6-fold lower: 4.01 µM for the first, 14.4 µM for the second.

First: C[C@@H](CO)C1=CC(C#C[Si](C)(C)C)N(C(=O)Oc2ccccc2)c2ccccc21 (some centres undefined)
Second: NC(=O)NC1=NC(Cc2ccccc2)C(=O)N1Cc1ccccc1 (centres undefined)
The TGI of the first is lower: 57.5 µM for the first, > 100 µM for the second.

Compared with `CCN(CC)CCCCNc1ncc2cc(-c3cc(OC)cc(OC)c3)c(NC(=O)NC(C)(C)C)nc2n1`, `COc1cc(Nc2nc3cc(C(F)(F)F)ccc3nc2-c2ccccc2)cc(OC)c1OC` is higher in TGI: 19.5 µM for the first, > 100 µM for the second.

`Cc1ccc(C(=O)C#Cc2c[nH]c(=O)[nH]c2=O)cc1` and `O=C(O)c1cccc2cccc(C(=O)O)c12.[Hg]` are within 1.5-fold of each other in TGI: 28.9 µM for the first, 32.5 µM for the second.

`CC(C)n1c(=O)[nH]n(-c2ccccc2)c1=O` and `Cn1c(=O)n2c(-c3ccccc3)c(-c3ccccc3)n2c1=O` cannot be ordered by TGI: > 100 µM for the first, > 100 µM for the second.

Going from `CCC(c1ccc2cc(O)ccc2c1)C(C)(C)C(=O)O` (centres undefined) to `O=C(CN1C(=O)S/C(=C\C(Cl)=C\c2ccccc2)C1=O)NCCc1ccc(O)cc1`, the TGI falls from > 100 µM to 14.5 µM.

`c1ccc(CN2CCCCC(Sc3ccccc3)CC2)cc1` (centres undefined) and `CNC(=O)NC(CCCCNC(=O)OCc1ccccc1)C(=O)OCc1ccccc1` (centres undefined) cannot be ordered by TGI: > 100 µM for the first, > 100 µM for the second.

Compared with `O=C1CCC(N2Cc3c(C#CCCCNC(=O)c4cc5c(o4)C(=O)c4ccccc4C5=O)cccc3C2=O)C(=O)N1` (centres undefined), `COC(=O)Cc1c(/C=C/C(C)(C)n2cnc(CCN3C(=O)CCC3=O)c2)[nH]c2ccccc12` is higher in TGI: 7.67 µM for the first, > 100 µM for the second.

Going from `Cc1[nH]nc2ccc3nc(-c4ccc5[nH]ncc5c4)c4c(c3c12)CCCC4` to `Clc1ccc(C2=NN[C@H](c3cn(-c4ccccc4)nc3-c3ccccc3)C2)cc1`, the TGI rises from 12.4 µM to > 100 µM.

`O=Nc1sc(=N\O)/c(=N/O)sc1NO` and `NC(=O)Nc1ccc(C(=O)NCCCNC(=O)c2ccc(NC(N)=O)cc2)cc1` cannot be ordered by TGI: > 100 µM for the first, > 100 µM for the second.

`Cc1cn([C@H]2C[C@@H]3[C@@H](COC(CCl)N3O)O2)c(=O)[nH]c1=O` (some centres undefined) and `COC1OC(COS(=O)(=O)c2ccc(C)cc2)C(O)C(OS(=O)(=O)c2ccc(C)cc2)C1OS(=O)(=O)c1ccc(C)cc1` (centres undefined) cannot be ordered by TGI: > 100 µM for the first, > 100 µM for the second.

`Nc1ncnc2c1ncn2C1C=CC(COS(N)(=O)=O)C1` (centres undefined) and `CS(=O)(=O)c1ccc(Oc2cc(F)cc(C#N)c2)c2c1[C@H](O)C(F)(F)C2` cannot be ordered by TGI: > 100 µM for the first, > 100 µM for the second.

First: CNCCCNC1(c2cc3ccccc3s2)CCCCC1
Second: NC(=NCCN1CCCCCCC1)NO
The TGI of the first is lower: 20.5 µM for the first, > 100 µM for the second.

`Nc1ccc(-c2nc3ccccc3o2)cc1S` and `O=C(O)c1cccc2cccc(C(=O)O)c12.[Hg]` are within 1.5-fold of each other in GI50: 15.6 µM for the first, 17.2 µM for the second.

Compared with `O=C(NC1CCCCC1)NS(=O)(=O)c1ccc(-n2nc3c(c2-c2ccc(Cl)cc2)Cc2ccccc2-3)cc1`, `Clc1ccc(C2=NN[C@H](c3cn(-c4ccccc4)nc3-c3ccccc3)C2)cc1` is 2.6-fold lower in GI50: 14.2 µM for the first, 5.41 µM for the second.

Going from `COc1ccc(CCN2CCC(Nc3nc4ccccc4n3Cc3ccc(F)cc3)CC2)cc1` to `O=C(Cc1ccccc1)NC(c1ccc(Cl)cc1)c1c(O)ccc2ccccc12` (centres undefined), the GI50 rises from 1.9 µM to 3.54 µM (1.9-fold).

Compared with `CCN(CC)CCCCNc1ncc2cc(-c3cc(OC)cc(OC)c3)c(NC(=O)NC(C)(C)C)nc2n1`, `CS(=O)(=O)c1ccc(Oc2cc(F)cc(C#N)c2)c2c1[C@H](O)C(F)(F)C2` is higher in GI50: 5.57 µM for the first, > 100 µM for the second.

`O=C1CCC(N2Cc3c(C#CCCCNC(=O)c4cc5c(o4)C(=O)c4ccccc4C5=O)cccc3C2=O)C(=O)N1` (centres undefined) and `O=C(CN1C(=O)S/C(=C\C(Cl)=C\c2ccccc2)C1=O)NCCc1ccc(O)cc1` are within 1.5-fold of each other in GI50: 2.7 µM for the first, 3.53 µM for the second.

`Cc1[nH]nc2ccc3nc(-c4ccc5[nH]ncc5c4)c4c(c3c12)CCCC4` was tested, and the GI50 was 1.31 µM.
